Measured values taken from ChEMBL document CHEMBL4888484, “Replenishing the malaria drug discovery pipeline: Screening and hit evaluation of the MMV Hit Generation Library 1 (HGL1) against asexual blood stage Plasmodium falciparum ,using a nano luciferase reporter read-out” (2022).
Among all 150,000 compounds or so, about 540 (0.36%) showed an effect of 50% or more. Some of the results follow.

system: Plasmodium falciparum; test: Primary screen in NF54 nanoGlo assay, in single point, at 2uM, 72h; a lower Z score goes with more inhibition; type: functional, Erythrocyte; details: timepoint 72 hour

Row | Compound | % Inhibition | Z score
1 | CN(C)Cc1ccc(CN(C)Cc2c[nH]cn2)cc1 | 5% | -0.83
2 | O=C(NCc1ccc(Cl)cc1)C(=O)Nc1nnc(C2CC2)s1 | -10% | 0.9
3 | COc1ccc(CNc2nc(C3CCCC3)nc3c2CCOCC3)cc1 | -9% | 0.89
4 | FC1(CNc2ccc3c(c2)CCOC3)CC1 | -13% | 2.46
5 | CCn1nnc(C)c1C(=O)N1CCn2c(cc3ccc(Cl)cc32)C1 | 2% | -0.16
6 | N#Cc1cc2n(n1)CCN(C[C@]1(O)CCCN(CCc3ccccc3)C1=O)C2 | 3% | -0.65
7 | COc1ccc(C[C@H](CO)CNC(=O)Nc2nc(C)c(C)s2)cc1O | -6% | 1.23
8 | CC(=O)NC1(c2noc(CCC(=O)NC(C)(C)C)n2)CCCCCC1 | -34% | 4.03
9 | N#Cc1cc(NC[C@H]2C[C@@H](O)C2)ccc1F | 14% | -2
10 | COc1ccc(C[C@@]2(CCC(=O)N3CCN(c4cc(Cl)ccc4C)CC3)CCC(=O)N2)c(F)c1 | 6% | -0.72
11 | CN1CCC(NS(=O)(=O)CC2CCCCC2)CC1 | 4% | -0.52
12 | Cc1ccc2c(c1)OC[C@H](CC(=O)NC1CCCCC1)N2Cc1ccccc1 | -9% | 1.28
13 | Cc1cccc(O[C@H]2COCCN(C(=O)N3CCOCC3)C2)n1 | 25% | -2.81
14 | Cc1cc(C)c2c(CC(=O)N3C[C@@H](CN(C)CCO)[C@@H](CO)C3)coc2c1C | -1% | 0.07
15 | CC[C@H](O)Cn1ncnc1-c1ccc(-n2cnnc2)cc1 | 7% | -1.06
16 | O=C(CN1CCCC1=O)N[C@H]1COCC[C@@H]1OCc1ccccn1 | -11% | 1.99
17 | CCOC(=O)c1cn([C@@H](CC)Cn2ccnc2)cc(Oc2ccccc2)c1=O | 6% | -0.76
18 | C=CCO[C@@H](C)C(=O)N1CCC(C#N)CC1 | -3% | 0.54
19 | Cc1cccc(N2C[C@H](C)N(C(=O)c3ccc4[nH]c(C)c(C)c4c3)CC2=O)c1 | -15% | 1.49
20 | Cc1ccc(S(=O)(=O)N2CCC3(CC2)N[C@@H](C(C)C)C(=O)N3CC2CC2)cc1 | -6% | 0.61
21 | Cc1cccc(CN2CCC[C@@]3(CCN(C(=O)CCc4ccncc4)C3)C2)c1 | 7% | -1.08

Row | Compound | % Inhibition | Z score
22 | COCCCN(CCC(=O)NCCc1ccccc1)C(=O)c1cc(C)oc1C | 2% | -0.18
23 | Cc1ccc(CNC(=O)N2CCC(C(C)O)C2)c(N2CCCC2)c1 (stereo not drawn) | -8% | 1.13
24 | COc1nc(NC(=O)c2cncc(Br)c2)n[nH]1 | 3% | -0.58
25 | Cc1nnc2n1CCN(C(=O)c1cc(C)n(C3CC3)c1C)C2 | 3% | -0.66
26 | Cc1cc(-c2cc(NC(=O)c3ccc(Br)cc3)n(-c3ccccc3)n2)c(C)n1-c1cccc(C(F)(F)F)c1 | 8% | -1.57
27 | CC(C)CCn1c(=O)c2sccc2n(CC(=O)NC2CCCC2)c1=O | -2% | 0.27
28 | O=c1[nH]c2c(c(=O)n1C1CCCCC1)CC=C2 | -58% | 6.83
29 | Cc1c(CN(C)CC2(C)COC2)oc2ccccc12 | 1% | -0.13
30 | COc1ccnc(CNC(=O)c2cc(CO)ccn2)c1 | 16% | -2.09
31 | CCS(=O)(=O)Cc1nnc(-c2ccc(Cl)cc2Cl)o1 | -2% | 0.44
32 | CN(CCO)C[C@H]1COCCN1C(=O)C1CCC1 | -6% | 0.94
33 | CC(=O)N1CCN(C(=O)c2csc(NC(=O)c3cccc(Cl)c3)n2)CC1 | -10% | 1.67
34 | CCC(CC)N(Cc1ccc2c(c1)OCO2)C(=O)[C@H]1C[C@H]2C=C[C@@H]1C2 | 9% | -1.11
35 | Cc1cc([C@H](C)NCC(C)(C)C2(O)CCOCC2)cs1 | -1% | 0.15
36 | COc1ccc(CNC(=O)CN2CCc3c(ncn3C)C2)cc1OC | 2% | -0.22
37 | COCc1ccccc1C(=O)OCc1cn(C)nn1 | 24% | -2.66
38 | CCS(=O)(=O)Nc1cc(C)ccc1F | 30% | -3.84
39 | Cc1ccccc1-n1nc(C)c2[nH]c(-c3ccc(OCCO)cc3)nc21 | 0% | -0.06
40 | CCc1c(NC(=O)[C@@H]2CN(CC)C[C@H]2c2cn(C)cn2)cnn1C1CCCC1 | 1% | -0.19
41 | O[C@H]1Cc2ccccc2[C@H]1Nc1ncc(Br)cn1 | -31% | 3.67
42 | COc1ccc(C#N)cc1CN(Cc1ccncc1)C1CC1 | 2% | -0.24

Row | Compound | % Inhibition | Z score
43 | O=C(Cn1ncn2nc(-c3ccccc3)cc2c1=O)N1CCCCCC1 | -32% | 2.8
44 | CCCNC(=O)N1CCC2(CCC(=O)N(C)CC2)CC1 | -12% | 1.32
45 | Clc1cccc2c(-c3nnnn3-c3ccc4ccccc4c3)c[nH]c12 | -13% | 1.55
46 | COCCC1(CNc2nc3ccccc3[nH]2)CC1 | 0% | 0.02
47 | O=C(NC1CCN(c2cc(C3CC3)[nH]n2)CC1)C1CCC1 | -8% | 1.03
48 | CCN(c1ccccc1)S(=O)(=O)c1cc(-c2nnc(C)o2)co1 | -6% | 0.84
49 | Cc1nn(C)cc1C(=O)N1CC[C@H](N2CCCCC2)C1 | 6% | -1.18
50 | CNC(=O)c1n[nH]c2c1[C@@H](c1nc(-c3ccc(Cl)cc3)no1)CC(=O)N2 | -4% | 0.54
51 | CCc1ncnc(N[C@@H](C)c2nncn2CCOC)c1F | -8% | 1.64
52 | CC[C@H](NC(=O)C1CCOCC1)c1ncccc1C | 5% | -0.92
53 | Cc1cc(NC(=O)[C@H](C)N2CCC(c3cn[nH]c3)CC2)no1 | -14% | 2.2
54 | Cc1[nH]c2ccc(NC(=O)c3ccccc3Cl)cc2c1[C@@H](c1ccccn1)N1CCCCC1 | 7% | -1.18
55 | CCc1ccc(-c2nccn2-c2ccc3[nH]nnc3c2)o1 | 6% | -0.74
56 | CCn1cc(NC(=O)NCc2ccoc2)cn1 | -9% | 1.73
57 | CC(=O)Nc1c(C)nn(-c2ccccc2)c1N1CCC(C(=O)NCCCN2CCCC[C@@H]2C)CC1 | -8% | 1.46
58 | Cc1nccn1-c1ncc(NC(=O)C(C)(C)C)cn1 | 3% | -0.41
59 | C=CCc1ccc(C(=O)N2CCC[C@]3(CCC(=O)N(C4CC4)C3)C2)cc1 | -8% | 1.62
60 | COC(=O)c1cc(C2CC2)nc2c1c(=O)n(Cc1ccccc1Cl)c(=O)n2C | 5% | -0.65
61 | CC[C@H]1CC[C@@H](C)N(C(=O)c2ccc(F)c(COC)c2)C1 | -9% | 1.25
62 | Cc1cc(C)c2c(N3C(=O)[C@H]4CCCC[C@H]4C3=O)n[nH]c2n1 | -5% | 0.6
63 | Cc1ccc(S(=O)(=O)[C@H]2C=c3c(=O)n(C)c(=O)n(C)c3=N2)cc1 | -4% | 0.52

Row | Compound | % Inhibition | Z score
64 | CCCc1nnsc1C(=O)NC(c1ccccn1)[C@H]1C[C@@H](O)C1 (stereo partly drawn) | -4% | 0.53
65 | O=C(CCn1nnc2ccccc21)N[C@H]1CC[C@@H]2CCC[C@@H]21 | 21% | -2.6
66 | C[C@@H](C1CC1)N(C)C(=O)c1ccc(S(=O)(=O)N2CCCCCC2)cc1 | -12% | 1.6
67 | O=C1Nc2ccc(-c3ccc4c(c3)OCO4)cc2C(=O)N2CCN(C(=O)C3CCCC3)C[C@@H]12 | 8% | -1.19
68 | CS(=O)(=O)N1CCC[C@H](CN2CCCc3sccc3C2)C1 | -15% | 1.47
69 | COc1ccc(NC(=O)[C@@H](Nc2ccc(C(F)(F)F)cc2Cl)C(C)C)c(OC)c1 | -6% | 0.98
70 | CC(C)c1ccc(NC(=O)CC[C@@H](C)[C@H]2CC[C@H]3[C@@H]4[C@@H](O)C[C@@H]5C[C@H](O)CC[C@]5(C)[C@H]4CC[C@]23C)cc1 | -4% | 0.55
71 | CN(C)c1cccc(C(=O)N2CC[C@@]3(CCCN(CC4CC4)C3=O)C2)c1 | -15% | 3.03
72 | COCc1ccc(C(=O)N2C[C@@H]3[C@H]4CC[C@H](CC4)[C@@H]3C2)cc1 | -15% | 1.8
73 | CCn1cc(Cl)c(C(=O)N(C2CCCCC2)C2CCCCC2)n1 | 33% | -1.09
74 | Cc1ccc(NC(=O)CN2C(=O)CCc3cc(Br)ccc32)cc1N(C)C | -3% | 0.42
75 | CC1CCCCC1NCC(C)(O)c1ccc(S(C)(=O)=O)cc1 (stereo not drawn) | -8% | 1.1
76 | CC[C@H](NCc1noc(C)n1)c1cccs1 | 2% | -0.24
77 | O=C(c1cnc(OCc2ccccc2)cn1)N1CCOC2(CCCCCC2)C1 | -16% | 1.42
78 | COC(=O)c1cc(C)nc2c1c(=O)n(CC(=O)Nc1ccc(C)cc1)c(=O)n2-c1ccccc1OC | 0% | -0.06
79 | CC(C)c1cccc2c1OCC[C@H](N)C2=O | -5% | 0.67
80 | Nc1c(-n2cccn2)cccc1-n1cccn1 | -9% | 1.26
81 | COc1cc(-c2nc(C)nc3c2CCC3)cc(OC)c1OC | -5% | 0.74
82 | CC(C)(C)n1cc(CN2CCCC[C@@H]2CCS(C)(=O)=O)cn1 | -10% | 1.66
83 | CC(C)C(=O)Nc1ccc(NC(=O)NCCc2ccnn2C)cc1 | -1% | 0.21
84 | O=C(c1cccc(Cl)c1)N1CCCC1CC(O)c1ccco1 (stereo not drawn) | 2% | -0.26
